According to PubChem BioAssay AID624417 (National Center for Advancing Translational Sciences (NCATS), 2012):
The campaign covered roughly 410,000 compounds. About 6,400 (1.6%) were called active. The inconclusive results got no clear call from the source; some entries with a clear call stand among them for comparison. Calls follow the shape of the dose curve; as a rule, active = well fitted inhibition curve with a large enough effect; inconclusive = small, poorly fitted or top-dose-only effect; inactive = no such curve, though single readings can be large or run the other way. Potencies of inconclusive entries are left out as doubtful fits.

What follows are compounds tested against Glucagon-like peptide 1 receptor (Homo sapiens) (UniProt P43220) (assay: qHTS of GLP-1 Receptor Inverse Agonists (Inhibition Mode)). Details: HEK293 GLP-1R CRE-luciferase, luminescence, 24 h, GLP-1R form is constitutively active; series mostly up to 38.3 µM.
Sequence of UniProt P43220 (P43220 whole entry, looked up): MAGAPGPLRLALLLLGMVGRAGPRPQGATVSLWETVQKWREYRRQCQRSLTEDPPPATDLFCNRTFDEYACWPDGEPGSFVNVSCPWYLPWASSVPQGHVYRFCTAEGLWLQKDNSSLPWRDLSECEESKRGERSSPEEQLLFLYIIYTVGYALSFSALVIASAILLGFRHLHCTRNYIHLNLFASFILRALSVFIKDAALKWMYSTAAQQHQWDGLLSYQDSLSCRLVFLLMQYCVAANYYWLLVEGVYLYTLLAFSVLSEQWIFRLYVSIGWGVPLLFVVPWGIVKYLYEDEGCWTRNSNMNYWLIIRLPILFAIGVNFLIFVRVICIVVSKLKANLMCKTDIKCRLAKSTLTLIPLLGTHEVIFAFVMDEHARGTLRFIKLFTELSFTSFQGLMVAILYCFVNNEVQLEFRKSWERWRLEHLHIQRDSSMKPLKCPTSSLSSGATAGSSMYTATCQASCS
Method in brief: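 Stable HEK293 clone (constitutively active GLP-1R + cAMP-response luciferase); 200 cells/uL plated, 12 h pre-culture, compound 24 hr, 37 deg C/5% CO2; detection reagent 12 min RT; luminescence.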
Also: nearly all actives have a fitted effect of over 55% in size.
Potency is read from the fitted curve at half-maximal effect; tags tell the direction and shape of the fitted curve.

Compound | Potency
CC(C)C[C@H]1CNC(=O)C(=O)N1C[C@@H]1CCCN1C[C@H](Cc1ccc(O)cc1)N1C[C@H](Cc2ccccc2)N(CC2CCCCCC2)C(=O)C1=O | inconclusive [inhibitor, single point]
CC(C)n1cc(C(=O)c2ccccc2O)cc(C#N)c1=O | inactive
CSc1ccccc1C(=O)C1CCCN(Cc2c(C)n(C)n(-c3ccccc3)c2=O)C1 (stereo unspecified) | inconclusive [inhibitor, partial curve, poor fit]
CCCc1ccc2oc(C(=O)N3CCN(C4CCS(=O)(=O)C4)CC3)c(C)c2c1 (stereo unspecified) | inconclusive [inhibitor, partial curve, poor fit]
O=C(CSc1nnc(CNC(=O)c2ccco2)o1)Nc1ccccc1 | inactive
COC(=O)Cn1c(=NC(=O)c2cc(-c3cccs3)nc3ccccc23)sc2cc(S(N)(=O)=O)ccc21 | inactive
CCOc1ccc(C(=O)Nc2ccc3c(c2)OCCO3)cc1Br | inconclusive [inhibitor, single point]
c1ccc(CN2CCN(C(c3ccccc3)c3nnnn3Cc3ccccc3)CC2)cc1 (stereo unspecified) | inconclusive [inhibitor, partial curve, poor fit]
COc1cccc(N2CC(NS(=O)(=O)c3ccc4ccccc4c3)CC2=O)c1 (stereo unspecified) | inconclusive [inhibitor, partial curve, poor fit]
O=C(Nc1ccccc1)c1ccc(-c2ccccc2Cl)o1 | inconclusive [inhibitor, single point]
O=C(COC(=O)c1ccccc1C(=O)c1ccccc1)NCCc1ccc(Cl)cc1Cl | inconclusive [inhibitor, full curve, poor fit]
CC(NC(=O)CCNC(=O)c1ccc(C(C)(C)C)cc1)c1ccccc1 (stereo unspecified) | inconclusive [inhibitor, single point]
O=C(c1ccccc1)c1ccc2c(c1)OCCCO2 | inconclusive [inhibitor, single point]
CN(CC(=O)Nc1cccc(F)c1)C(=O)c1ccc(COc2ccccc2)cc1 | inconclusive [inhibitor, full curve, poor fit]
CC(C)Oc1ccc(F)cc1-c1cc(C(=O)NCc2cc(C(F)(F)F)cc(C(F)(F)F)c2)[nH]n1 | inconclusive [inhibitor, partial curve, poor fit]
O=C(Nc1ccc(Cl)cc1)c1cc(S(=O)(=O)NC2CCCCCC2)ccc1F | inconclusive [inhibitor, partial curve, poor fit]
